Measurements as given in article PMC6919601, “Identification of Plasmodium dipeptidyl aminopeptidase allosteric inhibitors by high throughput screening” (PLoS ONE, 2019).
In all, about 110,000 compounds went through this assay and about 230 (0.21%) showed an effect of 50% or more. This is one part of the list.

target: DPAP1 (Plasmodium falciparum, UniProt Q8IIJ9); test: primary screen, percent inhibition; read by cleavage of a fluorogenic dipeptide substrate; higher = more effect of the substance; design: species or system P. falciparum D10 trophozoite lysates; single well
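Further: 30 min substrate incubation versus DMSO and 10 µM JCP410 controls.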

DPAP1, sequence (Q8IIJ9 whole entry, looked up): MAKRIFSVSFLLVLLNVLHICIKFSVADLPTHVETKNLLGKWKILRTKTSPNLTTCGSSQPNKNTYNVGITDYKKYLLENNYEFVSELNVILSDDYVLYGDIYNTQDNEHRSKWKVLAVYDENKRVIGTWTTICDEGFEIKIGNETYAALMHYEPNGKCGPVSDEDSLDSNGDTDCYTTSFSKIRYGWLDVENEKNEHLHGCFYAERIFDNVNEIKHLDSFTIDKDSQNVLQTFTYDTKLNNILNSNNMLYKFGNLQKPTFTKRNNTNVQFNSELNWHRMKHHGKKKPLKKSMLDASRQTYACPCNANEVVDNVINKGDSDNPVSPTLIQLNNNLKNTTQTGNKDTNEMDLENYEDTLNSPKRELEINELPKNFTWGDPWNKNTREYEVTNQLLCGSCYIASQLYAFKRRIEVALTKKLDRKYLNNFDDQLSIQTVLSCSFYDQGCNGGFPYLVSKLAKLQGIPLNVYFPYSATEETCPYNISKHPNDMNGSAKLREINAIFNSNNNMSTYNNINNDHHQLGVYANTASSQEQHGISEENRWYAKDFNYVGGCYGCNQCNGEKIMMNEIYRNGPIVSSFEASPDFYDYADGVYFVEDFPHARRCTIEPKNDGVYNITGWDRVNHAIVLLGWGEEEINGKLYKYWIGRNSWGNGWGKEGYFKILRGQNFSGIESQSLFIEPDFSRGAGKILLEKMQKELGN

SMILES | % Inhibition @ 10 uM
CCC(C)NC(=O)CNC(=S)N(Cc1ccccc1F)C1CCCCC1 (centres unmarked) | -2.14%
COc1cc(C(=O)Nc2c(C(=O)c3ccc(F)cc3)oc3ccccc23)cc(OC)c1OC | -1.11%
CCCCCCc1cc2c(s1)CCCC/C2=N\O | -6.36%
CC1(C)CC1C(=O)NCc1ccccc1 (centres unmarked) | 0.00178%
CCN(CC)C(=O)C1CCCN(Cc2c(F)cccc2Cl)C1 (centres unmarked) | -6.82%
Cc1ccc2cc3cc(C(=O)N4CCCC4)sc3nc2c1 | 0.947%
Cc1c(C)n(C(=O)CSc2nc3ccccc3[nH]2)c2ccccc12 | -0.85%
CCC(C)NC(=O)C(CC)n1nc(C)n2c(cc3sccc32)c1=O (centres unmarked) | 3.4%
O=C(Nc1ccc(Cl)cc1)Nc1cc(Br)cc2cccnc12 | -3.77%
COc1cc(C2SCC(=O)N2c2nnc(C34CC5CC(CC(C5)C3)C4)s2)cc(OC)c1OC (centres unmarked) | 0.884%
Cc1ccc(S(=O)(=O)NCCC(=O)NCCc2ccccc2Cl)cc1 | -3.94%
Cc1ccccc1OCC(=O)Nc1sc2c(c1C#N)CCC2 | -2.54%
COc1cc(NS(=O)(=O)c2ccc(NC(=O)c3ccc(C)cc3)cc2)nc(OC)n1 | 7.36%
Cc1nc(SCC(N)=O)c(C#N)c(C)c1C | -0.239%
CC1C(O)CC(c2ccccc2)NC1c1ccccc1 (centres unmarked) | -4.03%
Cc1ccc(S(=O)(=O)N2CCC(C(=O)NCC3OCCc4ccccc43)CC2)cc1 (centres unmarked) | 15%
O=C(c1ccc2c(c1)sc1nc(-c3ccc(F)cc3)cn12)N1CCN(C(=O)c2ccco2)CC1 | 10.9%
CCNC(=O)CN(Cc1ccccc1Cl)S(=O)(=O)c1ccc(Br)cc1 | -2.32%
COC(=O)c1cnn2c(C(F)(F)F)cc(-c3cccs3)nc12 | -0.406%
Cc1nc2c(c(C)nn2C)c(C)c1CCC(=O)NCCC1=CCCCC1 | -6.09%
CSc1ncc(C(=O)NCc2ccco2)c(C)n1 | -4.27%
CCc1ccccc1-n1nnc(-c2nc(-c3ccc(OC)cc3)no2)c1N | 1.13%

SMILES | % Inhibition @ 10 uM
CCOc1ccc(Cl)cc1CNCCNC(=O)c1nonc1N | 4.94%
CCOC(=O)c1c(NC(=O)COc2ccccc2C)sc2c1CCN(C(C)=O)C2 | 10.1%
O=C(Nc1sc2c(c1C(=O)NCC1CCCO1)CCCC2)c1ccccc1Cl (centres unmarked) | -3.34%
CC(=O)c1nc(-c2ccccc2)cc(-c2ccccc2)n1 | 1.42%
CCN1C(=O)/C(=C/c2ccc3c(c2)OCO3)S/C1=N/c1ccc(OC)cc1 | 0.909%
O=c1c2ccccc2ncn1-c1ccccc1F | 3.19%
CCOC(=O)N1CCC(NC(=O)c2cc3c(s2)CS(=O)(=O)C3)CC1 | -5.54%
COc1cccc(N(CC(=O)Nc2c(C)cccc2C)S(=O)(=O)c2ccccc2)c1 | 0.324%
CCOc1ccc(NC(=O)CN(c2cc(C(F)(F)F)ccc2Cl)S(C)(=O)=O)cc1 | -5.54%
CCOc1ccc(C(=O)Nc2ccc(S(=O)(=O)NC(C)=O)cc2)cc1 | -3.45%
COc1cc(C)c(CN2CCC(O)C2)cc1C (centres unmarked) | 1.9%
O=C(CNS(=O)(=O)c1cc(Cl)ccc1Cl)Nc1ccc(OCc2ccccc2)cc1 | -0.473%
CC1CCCN(S(=O)(=O)c2ccc(Cl)cc2)C1 (centres unmarked) | 0.526%
O=C(Nc1ccccc1)C1COc2ccccc2O1 (centres unmarked) | 0.909%
COc1cc([N+](=O)[O-])cc(CN2CCC(C)CC2)c1O | -1.75%
Cc1ccc(S(=O)(=O)Nc2ccc(-c3cn4cccnc4n3)cc2)cc1 | -1.63%
O=c1oc2ccccc2cc1-c1csc(-c2ccc(Br)cc2)n1 | 4.65%
C(#Cc1ccc(C#CCN2CCCC2)cc1)CN1CCCC1 | 3.25%
Cc1cc(OCCCCCN2CCNCC2)c(C)cc1Cl | -14.4%
Cc1ccc(-c2cc(C(=O)NCC3CCCO3)no2)cc1 (centres unmarked) | 0.221%
Cc1ccc(/C=C2\N=C(c3cccc(Br)c3)OC2=O)o1 | 3.31%
c1ccc(-c2csc(NCc3ccco3)n2)cc1 | -0.178%

SMILES | % Inhibition @ 10 uM
O=C1c2ccccc2C2(c3ccccc3)NCCN12 (centres unmarked) | -1.37%
CCn1cc(/C=C(\NC(=O)c2ccc(OC)c(OC)c2)C(=O)N2CCOCC2)c2ccccc21 | -5.36%
COc1ccc(CC(=O)c2ccc(OC)c(OC)c2C)cc1OC | 3.53%
CC1CCCC(C)N1C(=O)c1cc(-c2ccc(F)cc2)on1 (centres unmarked) | 0.0654%
CCN1CCN(C(=O)CSc2c3c(nc4ccc(Cl)cc24)CCCC3)CC1 | -4.96%
Cc1cccc(C(=O)N2CCc3ccccc3C2)c1 | -1.62%
Cc1ccc2c(c1)Cc1c(nc(-c3ccc(F)cc3)nc1SCC(N)=O)O2 | 0.44%
O=c1/c(=C/c2ccccc2)sc2nnc(-c3ccccc3Cl)n12 | 4.68%
COc1cc(NC(=O)c2cccc(C)c2)ccc1NC(=O)c1ccco1 | -7.76%
CCN1CCN(C(=O)Cn2ncc3c(C)n(Cc4ccc(Cl)cc4)c(C)c3c2=O)CC1 | 1.22%
COc1cc(S(=O)(=O)Nc2cccc(-c3cn4ccsc4n3)c2)c(C)cc1C | 4.7%
COc1ccc(-c2[nH]nc3c2C(c2ccccc2Cl)NC3=O)cc1 (centres unmarked) | -11.3%
c1ccc2c(c1)[nH]c1c2ccc2nonc21 | -6.36%
Cc1ccc2c(c1)-c1onc(C(=O)NC(C)c3ccccc3)c1CO2 (centres unmarked) | 0.0281%
CCOC(=O)N1CCN(C(=O)c2ccc(CNS(=O)(=O)c3ccc(C)cc3)cc2)CC1 | -1.54%
COC(=O)c1cc2sc(Cl)cc2n1Cc1cccc(F)c1 | -11.6%
O=C(COc1ccc(Cl)cc1Cl)Nc1c2c(nn1-c1ccc(F)cc1)CS(=O)(=O)C2 | 14.1%
COC(=O)/C(C#N)=C/c1c(Oc2cc(C)cc(C)c2)nc2c(C)cccn2c1=O | 0.315%
CCn1c(CNC(=O)COC)nc2ccccc21 | -0.228%
COc1cc(/C=C2/NC(=O)NC2=O)c(Br)cc1OCC(=O)O | -0.178%
CCC1CCCCN1C(=O)c1cccs1 (centres unmarked) | 1.91%
